# Experimental data: the supplement of paper PMC12217912
# This is one part of the list. Sequences were assembled here from the parent chain. Values near 0.05 are background.
# B1: TEV protease; numbered along this chain (parent)
# chain: MGESLFKGPRDYNPISSSICHLTNESDGHTTSLYGIGFGPFIITNKHLFRRNNGTLVVQSLHGVFKVKDTTTLQQHLVDGRDMIIIRMPKDFPPFPQKLKFREPQREERICLVTTNFQTKSMSSMVSDTSCTFPSGDGIFWKHWIQTKDGQCGSPLVSTRDGFIVGIHSASNFTNTNNYFTSVPKNFMELLTNQEAQQWVSGWRLNADSVLWGGHKVFMVKPEEPFQPVKEATQL
# Variants of: B1
# Test: raw area under fraction-flipped curve 0-4 h after induction (AUC4h, not background-subtracted), DNA-recorder readout of cleavage of the substrate (dimensionless); higher = more cleavage of the substrate by the protease variant
# Details: temperature: 34 °C; time window: 0-4 h after rhamnose induction
# Description: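 In vivo DNA recorder in E. coli TOP10(DE3) ΔrhaA at 34 °C. Each TEVp single-site mutant (parent TEVp 0) is paired with a single-site variant of the 7-mer TEVs (canonical ENLYFQ|S). The substrate sits between flexible linkers in a Bxb1-sfGFP-TEVs-SsrA fusion, so cleavage stabilises Bxb1 and speeds flipping of a recombination array, read by NGS. The value is the raw area under the fraction-flipped curve over 0-4 h after rhamnose induction (AUC4h), with ≥20 reads per time point. It is not background-subtracted; inactive controls average about 0.047.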
# 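Also: Bxb1 expression induced with 0.2% (w/v) L-rhamnose at OD600 near 0.5, cultures sampled hourly, flipped fraction per protease–substrate barcode pair counted by paired-end Illumina sequencing.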
Variant,area with substrate ENLAFQS,area with substrate ENLCFQS,area with substrate ENLDFQS,area with substrate ENLEFQS,area with substrate ENLFFQS,area with substrate ENLHFQS,area with substrate ENLIFQS,area with substrate ENLKFQS,area with substrate ENLLFQS,area with substrate ENLNFQS,area with substrate ENLPFQS,area with substrate ENLQFQS,area with substrate ENLRFQS,area with substrate ENLSFQS,area with substrate ENLWFQS,area with substrate ENLGFQS,area with substrate ENLMFQS,area with substrate ENLVFQS
MGESLFKGPRDYNPISSSICHLTNESDGHTTSLYGIGFGPFIITNKVLFRRNNGTLVVQSLHGVFKVKDTTTLQQHLVDGRDMIIIRMPKDFPPFPQKLKFREPQREERICLVTTNFQTKSMSSMVSDTSCTFPSGDGIFWKHWIQTKDGQCGSPLVSTRDGFIVGIHSASNFTNTNNYFTSVPKNFMELLTNQEAQQWVSGWRLNADSVLWGGHKVFMVKPEEPFQPVKEATQL [H47V],0.0617,0.0692,0.0614,0.0953,0.0669,0.0676,0.0631,0.0659,0.0657,0.0611,0.0464,0.0076,0.0489,0.0556,0.0582,–,–,–
MGESLFKGPRDYNPISSSICHLTNESDGHTTSLYGIGFGPFIITAKHLFRRNNGTLVVQSLHGVFKVKDTTTLQQHLVDGRDMIIIRMPKDFPPFPQKLKFREPQREERICLVTTNFQTKSMSSMVSDTSCTFPSGDGIFWKHWIQTKDGQCGSPLVSTRDGFIVGIHSASNFTNTNNYFTSVPKNFMELLTNQEAQQWVSGWRLNADSVLWGGHKVFMVKPEEPFQPVKEATQL [N45A],0.0297,–,0.0632,0.0628,0.0824,–,0.0547,0.0681,0.0643,0.0522,0.0612,0.0579,–,0.0561,–,0.0739,0.0566,0.0729
MGESLFKGPRDYNPISSSICHLTNESDGHTTSLYGIGFGPFIITKKHLFRRNNGTLVVQSLHGVFKVKDTTTLQQHLVDGRDMIIIRMPKDFPPFPQKLKFREPQREERICLVTTNFQTKSMSSMVSDTSCTFPSGDGIFWKHWIQTKDGQCGSPLVSTRDGFIVGIHSASNFTNTNNYFTSVPKNFMELLTNQEAQQWVSGWRLNADSVLWGGHKVFMVKPEEPFQPVKEATQL [N45K],0.0771,0.0493,0.0711,–,0.0777,–,0.0684,–,0.0493,0.0552,0.0289,–,0.0648,0.0663,0.0387,–,0.0666,–
MGESLFKGPRDYNPISSSICHLTNESDGHTTSLYGIGFGPFIITNKHLFRRNTGTLVVQSLHGVFKVKDTTTLQQHLVDGRDMIIIRMPKDFPPFPQKLKFREPQREERICLVTTNFQTKSMSSMVSDTSCTFPSGDGIFWKHWIQTKDGQCGSPLVSTRDGFIVGIHSASNFTNTNNYFTSVPKNFMELLTNQEAQQWVSGWRLNADSVLWGGHKVFMVKPEEPFQPVKEATQL [N53T],0.0716,0.0686,0.0643,0.0542,0.0668,0.0649,–,0.0748,0.0641,0.0646,–,0.0465,–,0.0655,–,–,–,0.0661
MGESLFKGPRDYNPISSSICHLTNESDGHTTSLYGIGFGPFIITNKHLFRRNRGTLVVQSLHGVFKVKDTTTLQQHLVDGRDMIIIRMPKDFPPFPQKLKFREPQREERICLVTTNFQTKSMSSMVSDTSCTFPSGDGIFWKHWIQTKDGQCGSPLVSTRDGFIVGIHSASNFTNTNNYFTSVPKNFMELLTNQEAQQWVSGWRLNADSVLWGGHKVFMVKPEEPFQPVKEATQL [N53R],0.0564,–,0.146,0.0693,0.07,0.0534,0.091,0.0738,0.0732,0.0663,0.0589,0.0644,0.0742,0.0624,0.0696,–,0.0737,0.0664
MGESLFKGPRDYNPISSSICHLTNESDGHTTSLYGIGFGPFIITNKHLFRLNNGTLVVQSLHGVFKVKDTTTLQQHLVDGRDMIIIRMPKDFPPFPQKLKFREPQREERICLVTTNFQTKSMSSMVSDTSCTFPSGDGIFWKHWIQTKDGQCGSPLVSTRDGFIVGIHSASNFTNTNNYFTSVPKNFMELLTNQEAQQWVSGWRLNADSVLWGGHKVFMVKPEEPFQPVKEATQL [R51L],0.0808,0.0657,0.0631,–,0.0704,0.0512,0.0812,0.0689,–,0.0644,0.0552,0.0726,–,0.0572,0.0567,0.0515,0.0755,0.0807
MGESLFKGPRDYNPISSSICHLTNESDGHTTSLYGIGFGPFIITNKHLFRRNNNTLVVQSLHGVFKVKDTTTLQQHLVDGRDMIIIRMPKDFPPFPQKLKFREPQREERICLVTTNFQTKSMSSMVSDTSCTFPSGDGIFWKHWIQTKDGQCGSPLVSTRDGFIVGIHSASNFTNTNNYFTSVPKNFMELLTNQEAQQWVSGWRLNADSVLWGGHKVFMVKPEEPFQPVKEATQL [G54N],0.051,–,0.0663,0.0592,0.0673,0.0558,0.0614,0.0588,0.0469,0.0563,0.0734,0.0552,0.0511,0.0512,–,–,–,0.067
MGESLFKGPRDYNPISSSICHLTNESDGHTTSLYGIGFGPFIITNKHLFRRNNTTLVVQSLHGVFKVKDTTTLQQHLVDGRDMIIIRMPKDFPPFPQKLKFREPQREERICLVTTNFQTKSMSSMVSDTSCTFPSGDGIFWKHWIQTKDGQCGSPLVSTRDGFIVGIHSASNFTNTNNYFTSVPKNFMELLTNQEAQQWVSGWRLNADSVLWGGHKVFMVKPEEPFQPVKEATQL [G54T],0.0609,–,0.0799,0.0545,0.0645,0.0485,0.0592,0.0628,0.0555,0.0573,0.0624,0.0551,–,0.0543,0.0608,–,0.0671,–
MGESLFKGPRDYNPISSSICHLTNESDGHTTSLYGIGFGPFIITNKHLFRRNNGYLVVQSLHGVFKVKDTTTLQQHLVDGRDMIIIRMPKDFPPFPQKLKFREPQREERICLVTTNFQTKSMSSMVSDTSCTFPSGDGIFWKHWIQTKDGQCGSPLVSTRDGFIVGIHSASNFTNTNNYFTSVPKNFMELLTNQEAQQWVSGWRLNADSVLWGGHKVFMVKPEEPFQPVKEATQL [T55Y],0.0631,–,0.0579,0.0646,0.0791,0.0689,0.0678,0.0815,0.0723,–,0.0583,0.0625,–,0.0711,0.0659,0.0606,0.0708,–
